# Reference: PMC4336329 (PLoS ONE, 2015)
# In all, about 310,000 compounds went through this assay and about 2,200 (0.71%) showed an effect of 50% or more. The effect is printed as a negative number. The list shows a part of the results.
# Biological target: human ether-à-go-go-related gene (hERG) potassium channel (human, UniProt Q12809)
# Assay: primary screen, population patch clamp on CHO cells stably expressing hERG
# human ether-à-go-go-related gene (hERG) potassium channel, sequence (Q12809 whole entry, looked up): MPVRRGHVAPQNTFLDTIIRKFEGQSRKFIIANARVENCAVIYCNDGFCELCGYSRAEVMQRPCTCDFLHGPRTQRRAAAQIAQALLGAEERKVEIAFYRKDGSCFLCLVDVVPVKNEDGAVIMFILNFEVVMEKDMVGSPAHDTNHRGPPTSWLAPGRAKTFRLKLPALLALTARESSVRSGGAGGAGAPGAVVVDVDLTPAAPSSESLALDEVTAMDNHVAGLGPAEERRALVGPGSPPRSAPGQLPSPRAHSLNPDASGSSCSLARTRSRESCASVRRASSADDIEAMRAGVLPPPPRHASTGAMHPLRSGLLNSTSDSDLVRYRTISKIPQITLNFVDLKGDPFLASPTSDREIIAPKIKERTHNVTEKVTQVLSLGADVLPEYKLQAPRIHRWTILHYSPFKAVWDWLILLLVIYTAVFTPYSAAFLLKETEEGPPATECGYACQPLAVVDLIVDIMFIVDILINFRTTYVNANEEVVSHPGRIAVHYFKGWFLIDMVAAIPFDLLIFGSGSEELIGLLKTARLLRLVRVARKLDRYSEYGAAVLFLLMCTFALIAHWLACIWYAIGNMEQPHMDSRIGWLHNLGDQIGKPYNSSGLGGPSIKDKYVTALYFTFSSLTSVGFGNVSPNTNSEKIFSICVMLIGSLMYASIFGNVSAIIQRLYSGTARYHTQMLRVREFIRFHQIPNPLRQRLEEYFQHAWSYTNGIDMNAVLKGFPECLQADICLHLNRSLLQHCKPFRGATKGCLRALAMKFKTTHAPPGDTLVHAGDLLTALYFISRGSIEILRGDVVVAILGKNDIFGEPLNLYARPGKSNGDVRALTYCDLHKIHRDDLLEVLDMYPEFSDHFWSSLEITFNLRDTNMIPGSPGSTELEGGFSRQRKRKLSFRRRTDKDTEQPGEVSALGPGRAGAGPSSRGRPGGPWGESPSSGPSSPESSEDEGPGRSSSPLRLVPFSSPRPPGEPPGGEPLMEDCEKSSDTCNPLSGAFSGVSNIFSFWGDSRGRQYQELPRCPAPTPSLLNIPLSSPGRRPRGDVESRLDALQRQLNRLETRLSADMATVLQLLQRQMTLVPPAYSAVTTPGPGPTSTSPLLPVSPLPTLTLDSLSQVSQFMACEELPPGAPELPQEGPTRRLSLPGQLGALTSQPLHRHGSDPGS
row,SMILES,"hERG current change (%, negative = inhibition) at 1uM"
1,O=C(O)c1[nH]nc2c1COc1ccccc1-2,9.01%
2,CCOc1ccc2ccccc2c1/C=N\NC(=O)OC,15.1%
3,COc1cc(-c2nc3ccccn3c2/N=C/c2ccccc2)ccc1O,8.07%
4,COc1cc(NS(=O)(=O)c2ccc(NC(=O)/C(=C\c3ccccc3OC)NC(=O)c3ccccc3)cc2)nc(OC)n1,20.8%
5,N[C@@H](Cc1ccccc1)C(=O)N1CCC(C(=O)N[C@@H](Cc2c[nH]c3ccccc23)C(=O)O)CC1,15.3%
6,Cc1ccc(Nc2nc(N)c([N+](=O)[O-])c(NCCO)n2)cc1,16.5%
7,COC(=O)C1CCN(C(=O)NC2CC(=O)N(c3ccc4c(c3)OCCO4)C2)CC1 (stereo not shown),-5.3%
8,Nc1nc(SCc2ccc3c(c2)OCCO3)n[nH]1,17.7%
9,CC12CN3CC(C)(CN(C1)C3c1ccccc1)C2O (stereo not shown),9.98%
10,O=C(CSc1nc2ccccc2s1)N1c2ccccc2Sc2ccccc21,5.24%
11,COC(=O)Cn1c(SCc2ccccc2)nc2ccccc21,-1.05%
12,CC(C)C(=O)Nc1cccc(NC(=O)c2ccc(Cl)cc2Cl)c1,3.68%
13,O=C1CSc2ccc(C(=O)NCC(c3ccco3)N3CCCCC3)cc2N1 (stereo not shown),6.34%
14,Cc1ccc(C(=O)N/N=C/C=C/c2ccccc2)o1,-2.97%
15,S=C(Nc1ccc2nc(-c3ccccn3)c(-c3ccccn3)nc2c1)N1CCCCCC1,-7.55%
16,COC(=O)c1sccc1NC(=O)Nc1cccc(OC)c1,14.8%
17,Cn1c(-c2ccc(Cl)cc2)cnc1NCc1cc2c(cc1[N+](=O)[O-])OCO2.O=C(O)C(=O)O,-23%
18,Cc1ccc(NC(=O)c2ccc3c(SCC(=O)O)c4c(nc3c2)CCCC4)c(Br)c1,-8.14%
19,O=c1oc2ccccc2cc1NCc1ccccc1O,8%
20,O=C(NNc1cc(Cl)ccc1Cl)C1CCC1,1.17%

row,SMILES,"hERG current change (%, negative = inhibition) at 1uM"
1,CC(C)c1ccc(C(=O)OC2CCOC2=O)cc1 (stereo not shown),9.64%
2,CCOc1cc(CNc2ccc(S(N)(=O)=O)cc2)cc(Cl)c1OC,-0.769%
3,COc1cccc(Cn2nnc3c(=O)[nH]c(C4CCCN(C(=O)c5ccccc5Cl)C4)nc32)c1 (stereo not shown),9.45%
4,O=C(CSc1ccccc1)N/N=C/c1ccccc1O,8.42%
5,CCN(CC)S(=O)(=O)c1cc(C)ccc1SC,23.5%
6,COc1ccccc1NC(=O)Nc1ccccc1Br,11.1%
7,CC(=O)N1CCN(c2ccccc2NC(=O)COc2ccc(Cl)cc2Cl)CC1,-0.105%
8,Cc1ccc(C(=O)C2=C(O)C(=O)N(Cc3ccco3)C2c2ccc(N(C)C)cc2)o1 (stereo not shown),6.35%
9,COC(=O)C1=C(c2ccccc2)C[C@@H]2CC[C@H]1N2C(=O)NCc1ccccc1,16.9%
10,CCn1c(-c2ccc(F)cc2)n[nH]c1=S,9.78%
11,CCOc1ccccc1CNC(=O)C1CCCN(c2ncnc3c2nc2n3CCCCC2)C1 (stereo not shown),-3.85%
12,Cc1ccc(N2C(=O)CCC2(C#N)c2ccccc2)cc1 (stereo not shown),13.8%
13,N#Cc1c(NC(=O)/C=C/c2ccco2)sc2c1CCCC2,2.63%
14,COc1ccccc1-n1c(SCC(=O)Nc2cccc(C(=O)O)c2)nnc1-c1ccccc1C,9.95%
15,CCOC(=O)c1cnc(SCc2nc(N)nc(Nc3ccc(C)cc3)n2)nc1N,-1.84%
16,CCOc1cc(C)nc(N2CCC(C(=O)Nc3ccccc3OCC)CC2)n1,11%
17,C=CCN(C(=O)CSc1nc2[nH]ncc2c(=O)n1-c1ccccc1OC)c1ccccc1,3.01%
18,COc1ccccc1C(C#N)c1cccc(Cl)n1 (stereo not shown),18.6%
19,CN(C(=S)NC(=O)c1ccc(F)cc1)C1CCCCC1,14.5%
20,Cc1nn(Cc2ccccc2Cl)c(C)c1NC(=O)c1ccn(C)n1,13.7%

row,SMILES,"hERG current change (%, negative = inhibition) at 1uM"
1,Nc1ccc(-n2ccnc2)cc1,6.25%
2,CCCC(=O)NC(=S)Nc1ccc(S(=O)(=O)N2CCc3ccccc32)cc1,14.7%
3,O=C(COc1ccccc1[N+](=O)[O-])Nc1ccc2c(c1)CCC2,9.54%
4,COc1c(O)ccc(/C=N/NC(=O)c2ccc3c(c2)OCCO3)c1[N+](=O)[O-],11.4%
5,CCCCCCC(=O)Oc1ccc(N2C(=O)CCC2=O)cc1,0.113%
6,CCCOc1ccc(C(=O)Nc2ccc3c(c2)OCCO3)cc1,9.14%
7,Cc1cc(C)c2sc(N(CCCN(C)C)C(=O)CN3C(=O)c4ccccc4C3=O)nc2c1.Cl,12.7%
8,CCOc1ccc(N2C(=O)CC(SC(=NC)Nc3ccc4c(c3)OCO4)C2=O)cc1 (stereo not shown),13.6%
9,Brc1ccc(-c2nnc(SCCC3OCCCO3)o2)cc1,9.14%
10,O=C(Nc1ccc(Br)cc1F)C1CCN(c2nnc(-n3cccc3)s2)CC1,7.44%
11,Cc1cccc(C(=O)Nc2cccc(C(=O)N/N=C/c3cccc(C)n3)c2)c1,18.2%
12,C=CCNc1oc(Cc2cccc3ccccc23)nc1C#N,5.92%
13,S=C(NCC1CCCO1)c1ccc(Br)cc1 (stereo not shown),11.9%
14,Cc1csc(CNC(=O)c2cc(COc3c(C)cccc3C)on2)n1,13.5%
15,COc1ccccc1NC(=O)Nc1ccnn1C1CCN(C(=O)c2ccccn2)CC1,10.4%
16,OCCNc1cnc2ccccc2n1,9.55%
17,Cn1c2c(c3ccccc31)CCSC2=O,-2.86%
18,Cc1ccccc1C(=O)NC1CCCN(Cc2ccccc2F)C1 (stereo not shown),1.39%
